Experimental data: the antibiotic and cytotoxicity screens of Wong et al. (2023)
The other results are listed elsewhere or left out.

What follows are compounds tested on HepG2 (assay: cytotoxicity call (relative viability < 0.9)). Details: 10 µM.
With `CC(C)NC(=O)N(C)C[C@@H]1OCCCC[C@@H](C)Oc2ccc(NC(=O)Nc3ccc(F)cc3)cc2C(=O)N([C@H](C)CO)C[C@@H]1C` the cytotoxicity call was “inactive”.
In the case of `C[C@H]1CCCCO[C@H](CN(C)Cc2ccc(C(F)(F)F)cc2)[C@@H](C)CN([C@@H](C)CO)C(=O)c2cc(NS(=O)(=O)c3ccc(Cl)cc3)ccc2O1`, the cytotoxicity call is reported as “inactive”.
`C[C@@H]1CCCCO[C@H](CN(C)C(=O)Nc2ccc3c(c2)OCO3)[C@H](C)CN([C@@H](C)CO)C(=O)c2cc(NS(=O)(=O)c3ccc(Cl)cc3)ccc2O1` was tested, and the cytotoxicity call was “inactive”.
`C[C@H](CO)N1C[C@H](C)[C@@H](CN(C)S(C)(=O)=O)Oc2ccc(NS(=O)(=O)c3cccs3)cc2C1=O` was tested, and the cytotoxicity call was “inactive”.
`O=C(N[C@@H]1C=C[C@@H](CC(=O)N2CCOCC2)O[C@@H]1CO)c1ccc2c(c1)OCO2` was tested, and the cytotoxicity call was “inactive”.
In the case of `COC(=O)C[C@@H]1CC[C@H]2[C@@H](COC[C@H](O)CN2S(=O)(=O)c2ccc(F)cc2)O1`, the cytotoxicity call is reported as “inactive”.
For `CC(C)NC(=O)N(C)C[C@@H]1Oc2c(NS(=O)(=O)c3cccs3)cccc2C(=O)N([C@@H](C)CO)C[C@H]1C`, the cytotoxicity call was “inactive”.
For `C[C@@H]1CCCCO[C@H](CN(C)C(=O)Nc2cccc3ccccc23)[C@@H](C)CN([C@H](C)CO)C(=O)c2cc(NS(=O)(=O)c3ccccc3)ccc2O1`, the cytotoxicity call was “inactive”.
With `CCS(=O)(=O)N1C[C@]2(C1)CN([C@@H](CO)c1c2c2ccc(cc2n1C)OC)S(=O)(=O)c1ccccc1` the cytotoxicity call was “inactive”.
In the case of `COCCCNC(=O)[C@@]1(Sc2ccc(C)cc2)CC(=O)N(C2CCCCC2)[C@@H]1c1ccc(CO)cc1I`, the cytotoxicity call is reported as “inactive”.
